In PubChem BioAssay (NCATS):
The inconclusive results got no clear call from the source; some entries with a clear call stand among them for comparison. For part of these data: Where the call is inconclusive, the potency comes from a doubtful curve fit. Calls of active or inactive are those of the source. Calls follow the shape of the dose curve; as a rule, active = well fitted curve in the direction sought with a large enough effect; inconclusive = small, poorly fitted or top-dose-only effect, or another doubt; inactive = no such curve, though single readings can be large; an effect the other way counts as inactive or inconclusive.

Experiments:
[1] = biological target: Rap guanine nucleotide exchange factor 3 (Homo sapiens) (UniProt O95398); assay: Confirmatory qHTS for antagonist of cAMP-regulated guanine nucleotide exchange factor 3 (EPAC1) (AID 1645880); settings: EPAC1 Rap1B-BODIPY-GDP exchange, fluorescence; activity, negative = inhibition: at 115 µM (top of the series); also: nearly all actives have a fitted effect of over 55% in size;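 as to activity, negative = inhibition: plate controls were DMSO only for no effect and full effect of the ATA control for full effect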
In short: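 Released BODIPY-GDP fluoresces less than Rap1-bound BODIPY-GDP; the signal is followed at 480/540 nm at 5-min intervals over 30 min, after 5 min at room temperature. Reactions contain 100 nM EPAC1, 250 nM RAP1B-BODIPY-GDP and 50 uM GDP; results are normalized to ATA and DMSO.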

[2] = biological target: Rap guanine nucleotide exchange factor 4 (Homo sapiens) (UniProt Q8WZA2); assay: Confirmatory qHTS for antagonist of cAMP-regulated guanine nucleotide exchange factor 4 (EPAC2) (AID 1645885); settings: activity change, negative = inhibition: at 12.7 µM (top of the series) unless noted; also: nearly all actives have a fitted effect of over 25% in size; as to activity change, negative = inhibition: % is scaled to controls: 0 for no effect and ±100 for the full control effect
[3] = biological target: Rap guanine nucleotide exchange factor 3 (Homo sapiens) (UniProt O95398); assay: Counterscreen qHTS for agonist of cAMP-regulated guanine nucleotide exchange factor 3 (EPAC1) (AID 1645889); settings: EPAC1 Rap1B-BODIPY-GDP exchange, fluorescence; activation: at 154 µM (top of the series) unless noted; also: nearly all actives have a fitted effect of over 40% in size; as to activation: % of control where 0% means no effect
In short: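 Rap1B-BODIPY-GDP 250 nM + GDP 50 uM; cpds 7-pt, final 9.74 nM–152 uM (activator mode) or from 7.32 nM upwards (inhibitor mode); RT; FI 480/540 nm at 5 and 30 min, then ± cAMP, reread.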

[4] = qHTS for Inhibitors of the vitamin D receptor (VDR): Hit Validation using a Texas Red Assay (AID 602201)
In short: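 After a 2-hour room-temperature incubation, polarization of Texas-Red emission was read (Ex 595 nm/Em 615 nm). Final mix contained 7 nM Texas Red, 1.5 uM VDR-LBD and LG19078.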

[5] = biological target: Vitamin D3 receptor (Homo sapiens) (UniProt P11473); assay: qHTS for Inhibitors of the vitamin D receptor (VDR): Hit Validation using a Beta-Lactamase Assay (AID 602202)
In short: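 Beta-lactamase reporter read-out (447 nm emission of cleaved FRET substrate, 2 h) after 18 h compound exposure of HEK293 cells carrying a VDR-GAL4 fusion and UAS reporter, stimulated with LG190178.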

[6] = qHTS for Inhibitors of the vitamin D receptor (VDR): Hit Validation using a Cytotoxicity Assay (AID 602204);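 also: cells co-treated with VDR agonist LG190178 at 300 nM; nearly all actives have a fitted effect of over 75% in size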
In short: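 Cells were seeded at 20,000 per well and left 4 hours before compound addition. After 18 hours of exposure, an ATP-detecting luminescent reagent was added, and luminescence was read 30 minutes later. Cycloheximide at high concentration and DMSO served as controls.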

[7] = biological target: Phosphoglycerate kinase, glycosomal (Trypanosoma brucei brucei) (UniProt P07378); assay: qHTS for inhibitors of Phosphogylcerate Kinase: Hit Validation Screen (AID 686980); also: nearly all actives have a fitted effect of over 65% in size
In short: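 Recombinant glycosomal PGK reaction used 1,3-bisphosphoglycerate generated in-well by GAPDH (100nM final) in 100mM TEA pH 7.6, 5mM MgCl2, 0.01% Tween-20. After 60 minutes at room temperature, ATP was read by Kinase-Glo Plus luminescence end-point.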

[8] = biological target: DNA polymerase eta (Homo sapiens) (UniProt Q9Y253); assay: qHTS for Inhibitors of Polymerase Eta: Confirmatory Assay for Cherry-picked Compounds (AID 720502); settings: Pol eta primer extension, TAMRA/BHQ fluorescence, 10 min
In short: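 Strand-displacement fluorescence (525 nm excitation, 598 nm emission) was read kinetically at 0 and 10 min after adding 50 nM final TAMRA-reporter/BHQ-2-template substrate. Beforehand, 10 nM Pol eta had been exposed to compound for 15 min at room temperature.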

[9] = biological target: DNA polymerase iota (Homo sapiens) (UniProt Q9UNA4); assay: qHTS for Inhibitors of Polymerase Iota: Confirmatory Assay for Cherry-picked Compounds (AID 720496); settings: Pol iota primer extension, TAMRA/BHQ fluorescence
In short: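 Using TAMRA dequenching as read-out, activity of 10 nM human Pol iota on 50 nM (final) primer/reporter/template substrate was tracked from 0 to 10 min, following a 15 min room-temperature compound preincubation.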
Potency is read from the fitted curve at half-maximal effect; tags tell the direction and shape of the fitted curve.

Sequence of UniProt Q9Y253 (Q9Y253 whole entry, looked up): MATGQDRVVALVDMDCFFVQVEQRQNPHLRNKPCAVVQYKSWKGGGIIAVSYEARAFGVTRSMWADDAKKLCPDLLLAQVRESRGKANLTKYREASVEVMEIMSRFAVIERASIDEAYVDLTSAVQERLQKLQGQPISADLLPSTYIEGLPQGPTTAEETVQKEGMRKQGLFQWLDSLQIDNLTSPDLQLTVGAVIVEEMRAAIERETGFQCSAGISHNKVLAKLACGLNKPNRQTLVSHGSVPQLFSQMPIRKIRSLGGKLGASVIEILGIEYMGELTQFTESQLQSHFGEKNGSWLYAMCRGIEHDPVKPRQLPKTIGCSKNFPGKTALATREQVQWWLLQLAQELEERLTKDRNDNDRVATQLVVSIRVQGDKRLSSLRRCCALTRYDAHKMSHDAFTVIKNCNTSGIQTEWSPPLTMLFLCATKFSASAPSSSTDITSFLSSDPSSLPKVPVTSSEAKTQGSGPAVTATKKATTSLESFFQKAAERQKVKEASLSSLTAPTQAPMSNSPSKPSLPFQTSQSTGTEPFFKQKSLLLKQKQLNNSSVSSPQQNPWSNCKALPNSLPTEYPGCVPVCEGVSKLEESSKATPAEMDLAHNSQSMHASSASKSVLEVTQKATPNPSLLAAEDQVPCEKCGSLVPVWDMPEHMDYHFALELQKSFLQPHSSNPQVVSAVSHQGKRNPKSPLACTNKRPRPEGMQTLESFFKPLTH
Sequence of UniProt Q9UNA4 (Q9UNA4 whole entry, looked up): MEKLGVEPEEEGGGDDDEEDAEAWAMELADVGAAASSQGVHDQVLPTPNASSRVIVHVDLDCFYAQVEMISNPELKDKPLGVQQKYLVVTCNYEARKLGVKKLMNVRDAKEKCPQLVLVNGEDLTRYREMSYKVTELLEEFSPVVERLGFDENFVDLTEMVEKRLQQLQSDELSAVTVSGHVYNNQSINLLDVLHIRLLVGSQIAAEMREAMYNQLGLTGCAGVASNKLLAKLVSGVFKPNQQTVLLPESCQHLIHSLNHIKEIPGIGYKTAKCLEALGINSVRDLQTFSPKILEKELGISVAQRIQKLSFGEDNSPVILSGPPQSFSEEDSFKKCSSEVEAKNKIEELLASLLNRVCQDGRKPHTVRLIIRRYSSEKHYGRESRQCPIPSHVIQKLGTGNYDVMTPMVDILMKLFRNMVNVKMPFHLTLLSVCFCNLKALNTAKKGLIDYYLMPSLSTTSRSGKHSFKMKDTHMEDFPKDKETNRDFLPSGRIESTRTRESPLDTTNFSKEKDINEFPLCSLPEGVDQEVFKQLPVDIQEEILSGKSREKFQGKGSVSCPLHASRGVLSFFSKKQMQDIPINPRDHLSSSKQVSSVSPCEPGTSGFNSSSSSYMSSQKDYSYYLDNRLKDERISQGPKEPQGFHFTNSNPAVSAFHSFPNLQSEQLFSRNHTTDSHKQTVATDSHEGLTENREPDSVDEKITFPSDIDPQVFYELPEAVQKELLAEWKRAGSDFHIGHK
Sequence of UniProt Q8WZA2 (Q8WZA2 whole entry, looked up): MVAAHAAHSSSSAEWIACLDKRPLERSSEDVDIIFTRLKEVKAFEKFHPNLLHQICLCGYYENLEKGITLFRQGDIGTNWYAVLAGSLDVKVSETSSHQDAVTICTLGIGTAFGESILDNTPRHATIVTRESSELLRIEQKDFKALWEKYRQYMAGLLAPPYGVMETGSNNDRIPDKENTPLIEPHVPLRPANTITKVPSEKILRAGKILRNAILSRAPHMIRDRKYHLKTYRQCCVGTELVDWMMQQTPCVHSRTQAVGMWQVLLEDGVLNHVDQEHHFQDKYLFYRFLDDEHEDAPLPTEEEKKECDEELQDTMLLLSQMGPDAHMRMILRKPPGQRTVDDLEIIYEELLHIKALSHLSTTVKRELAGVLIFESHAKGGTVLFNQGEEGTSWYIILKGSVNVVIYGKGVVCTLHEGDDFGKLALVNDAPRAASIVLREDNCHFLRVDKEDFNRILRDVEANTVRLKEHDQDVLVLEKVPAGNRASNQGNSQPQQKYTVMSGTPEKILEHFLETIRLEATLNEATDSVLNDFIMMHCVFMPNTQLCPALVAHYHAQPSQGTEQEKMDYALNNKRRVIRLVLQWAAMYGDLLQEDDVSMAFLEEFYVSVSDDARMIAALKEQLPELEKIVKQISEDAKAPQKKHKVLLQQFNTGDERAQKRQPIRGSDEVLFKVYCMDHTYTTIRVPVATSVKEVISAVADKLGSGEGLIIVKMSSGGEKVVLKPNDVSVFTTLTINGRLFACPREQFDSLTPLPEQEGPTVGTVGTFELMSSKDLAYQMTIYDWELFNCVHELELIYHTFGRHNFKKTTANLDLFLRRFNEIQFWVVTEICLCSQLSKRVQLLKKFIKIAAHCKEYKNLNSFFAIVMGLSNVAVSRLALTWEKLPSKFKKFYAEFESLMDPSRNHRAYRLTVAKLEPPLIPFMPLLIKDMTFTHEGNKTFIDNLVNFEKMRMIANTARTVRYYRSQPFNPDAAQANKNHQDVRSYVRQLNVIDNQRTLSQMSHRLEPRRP
Sequence of UniProt O95398 (O95398 whole entry, looked up): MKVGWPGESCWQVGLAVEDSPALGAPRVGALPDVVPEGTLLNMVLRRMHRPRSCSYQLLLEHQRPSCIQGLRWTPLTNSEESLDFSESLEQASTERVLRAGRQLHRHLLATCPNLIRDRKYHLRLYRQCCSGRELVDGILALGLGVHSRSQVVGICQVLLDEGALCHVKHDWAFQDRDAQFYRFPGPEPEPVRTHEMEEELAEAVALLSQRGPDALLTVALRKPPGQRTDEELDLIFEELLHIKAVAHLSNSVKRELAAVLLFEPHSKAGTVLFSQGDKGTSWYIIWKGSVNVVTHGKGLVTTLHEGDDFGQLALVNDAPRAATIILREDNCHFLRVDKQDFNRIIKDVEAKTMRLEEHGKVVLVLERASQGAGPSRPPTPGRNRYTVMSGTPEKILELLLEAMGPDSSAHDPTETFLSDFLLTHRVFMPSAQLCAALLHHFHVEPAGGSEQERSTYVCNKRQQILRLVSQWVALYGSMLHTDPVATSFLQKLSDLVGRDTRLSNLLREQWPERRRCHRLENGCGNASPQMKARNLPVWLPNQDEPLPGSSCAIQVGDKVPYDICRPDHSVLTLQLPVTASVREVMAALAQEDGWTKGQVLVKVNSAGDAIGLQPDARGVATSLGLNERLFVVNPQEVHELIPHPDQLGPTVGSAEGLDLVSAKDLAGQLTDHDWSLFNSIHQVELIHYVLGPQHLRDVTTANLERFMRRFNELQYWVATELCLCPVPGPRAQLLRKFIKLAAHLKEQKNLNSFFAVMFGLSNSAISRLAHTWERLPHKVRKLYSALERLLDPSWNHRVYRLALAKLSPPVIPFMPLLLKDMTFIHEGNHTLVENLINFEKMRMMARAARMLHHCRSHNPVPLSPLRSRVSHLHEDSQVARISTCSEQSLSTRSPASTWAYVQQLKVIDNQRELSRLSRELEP
Sequence of UniProt P11473 (P11473 whole entry, looked up, the tested form may be a part): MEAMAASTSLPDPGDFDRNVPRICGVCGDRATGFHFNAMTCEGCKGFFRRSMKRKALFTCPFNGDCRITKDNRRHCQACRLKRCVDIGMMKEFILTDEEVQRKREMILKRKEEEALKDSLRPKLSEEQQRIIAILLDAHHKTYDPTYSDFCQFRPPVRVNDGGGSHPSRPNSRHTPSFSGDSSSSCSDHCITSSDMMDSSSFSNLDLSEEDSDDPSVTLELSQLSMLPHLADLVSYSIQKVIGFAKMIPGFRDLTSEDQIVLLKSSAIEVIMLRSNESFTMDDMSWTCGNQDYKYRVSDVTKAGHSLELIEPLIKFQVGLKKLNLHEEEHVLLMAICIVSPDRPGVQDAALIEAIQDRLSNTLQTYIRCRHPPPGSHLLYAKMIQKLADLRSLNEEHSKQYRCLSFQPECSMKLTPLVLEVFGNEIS
Sequence of UniProt P07378 (P07378 whole entry, looked up): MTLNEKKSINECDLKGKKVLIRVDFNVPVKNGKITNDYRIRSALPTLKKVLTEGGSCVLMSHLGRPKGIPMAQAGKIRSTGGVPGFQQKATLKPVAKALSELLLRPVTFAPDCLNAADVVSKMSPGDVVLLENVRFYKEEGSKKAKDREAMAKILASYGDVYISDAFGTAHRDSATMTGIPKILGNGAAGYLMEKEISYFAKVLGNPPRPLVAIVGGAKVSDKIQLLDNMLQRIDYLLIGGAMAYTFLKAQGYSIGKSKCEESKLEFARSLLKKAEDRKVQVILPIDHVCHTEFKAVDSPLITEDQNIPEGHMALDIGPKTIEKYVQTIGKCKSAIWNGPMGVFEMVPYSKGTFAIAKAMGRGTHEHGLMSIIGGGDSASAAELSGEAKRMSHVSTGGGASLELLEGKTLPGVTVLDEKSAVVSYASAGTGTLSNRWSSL

C#Cc1ccc([C@@H]2C=C(C(=O)NCc3ccccc3)O[C@H](OCC)[C@H]2CCCO)cc1
Potency [1]: inconclusive: 75.7 µM [inhibitor, partial curve, poor fit]
Potency [2]: inconclusive: 33.8 µM [inhibitor, full curve]
Potency [3]: inconclusive: 6.31 µM [activator, partial curve, poor fit]

COn1c2c(c3c4nonc4ccc31)CCCC2
Potency [1]: inconclusive: 84.9 µM [inhibitor, partial curve, poor fit]
Potency [2]: inactive
Potency [3]: inconclusive: 15.8 µM [activator, partial curve]

Cc1cc(O)cc(C)c1NS(=O)(=O)c1ccc2ccccc2c1
Potency [1]: inconclusive: 33.8 µM [inhibitor, full curve, poor fit]
Potency [2]: inactive
Potency [3]: inconclusive: 11.2 µM [activator, single point]

COC(=O)CC1(C(=O)OC)Oc2ccc(Br)cc2C(=O)N1c1cccc(Cl)c1Cl (stereo not given)
Potency [1]: inconclusive: 95.3 µM [inhibitor, partial curve, poor fit]
Potency [2]: active: 1.69 µM
Potency [3]: inconclusive: 1.41 µM [activator, full curve, poor fit]

COc1ccc(OC)c(NC(=O)c2nc(S(=O)(=O)Cc3ccccc3)ncc2Cl)c1
Potency [4]: inconclusive: 2.82 µM [inhibitor, partial curve]
Potency [5]: active: 8.2 µM
Potency [6]: active: 8.2 µM
Potency [1]: inconclusive: 42.6 µM [inhibitor, partial curve]
Potency [2]: inconclusive: 84.9 µM [inhibitor, single point]
Potency [3]: inconclusive: 5.62 µM [activator, full curve, poor fit]

COc1ccc(-c2cc(N)n(S(=O)(=O)c3c(F)c(F)c(F)c(F)c3F)n2)cc1OC
Potency [4]: active: 20 µM
Potency [1]: inconclusive: 44.7 µM [inhibitor, partial curve]
Potency [2]: inconclusive: 4.26 µM [inhibitor, single point]
activation [3]: inconclusive: 47.2% [activator] [at 30.8 µM]

Cc1c(C(=O)OCC(=O)N2CCCC2=O)oc2ccccc12
Potency [1]: inactive
Potency [2]: inactive
activation [3]: inconclusive: 49.6% [activator]

O=S(=O)(O)c1cc(O)c(N=Nc2ccc(O)cc2O)c2ccccc12
Potency [7]: active: 23.1 µM
Potency [8]: active: 37.9 µM
Potency [1]: active: 37.9 µM
Potency [2]: active: 21.3 µM
Potency [3]: inactive

Cc1cccc(NC(=O)Cn2c(O)c(N=NC(=O)c3ccccc3O)c3ccccc32)c1
Potency [8]: inconclusive: 84.9 µM [inhibitor, single point]
Potency [1]: active: 75.7 µM
Potency [2]: inconclusive: 75.7 µM [inhibitor, single point]
Potency [3]: inactive

Cc1nc2cc(-c3ccsc3-n3c(C)ccc3C)[nH]n2c(=O)c1Cl
Potency [8]: active: 30.1 µM
Potency [1]: active: 37.9 µM
Potency [2]: inconclusive: 23.9 µM [inhibitor, partial curve, poor fit]
activation [3]: inconclusive: 52.4% [activator]

Cc1nn(-c2ccccc2)c(Cl)c1/C=N/Nc1ccc(S(=O)(=O)Nc2ccccc2C(=O)O)cc1[N+](=O)[O-]
Potency [9]: inconclusive: 84.4 µM [inhibitor, single point]
Potency [8]: active: 42.6 µM
Potency [1]: active: 42.6 µM
Potency [2]: inconclusive: 84.9 µM [inhibitor, single point]
Potency [3]: inconclusive: 10 µM [activator, partial curve, poor fit]

C/C=C\C=C/C(=O)Nc1cccc(C2=NOC3(C2)C[C@H](C(N)=O)N(C(=O)c2ccc(OC)cc2)C3)c1 (stereo not given in full)
Potency [9]: inconclusive: 75.2 µM [inhibitor, partial curve]
Potency [1]: inconclusive: 16.9 µM [inhibitor, full curve]
Potency [2]: inconclusive: 37.9 µM [inhibitor, single point]
activation [3]: inconclusive: 43.8% [activator]

O=C1ON=C(c2ccccc2)/C1=C/c1ccc(-c2ccccc2[N+](=O)[O-])o1
Potency [4]: active: 4.47 µM
Potency [9]: inconclusive: 84.4 µM [inhibitor, single point]
Potency [1]: active: 37.9 µM
Potency [2]: inconclusive: 60.1 µM [inhibitor, partial curve]
activation [3]: inconclusive: 36.4% [activator]

Oc1ccc(NCc2ccccc2OCc2ccccc2Cl)cc1
Potency [8]: inconclusive: 95.3 µM [inhibitor, single point]
Potency [1]: inconclusive: 95.3 µM [inhibitor, single point]
Potency [2]: inconclusive: 3.79 µM [inhibitor, single point]
activation [3]: inconclusive: 94% [activator]

Oc1ccc(NCc2ccc(OCc3ccccc3Cl)cc2)cc1
Potency [8]: inconclusive: 95.3 µM [inhibitor, single point]
Potency [1]: inconclusive: 95.3 µM [inhibitor, partial curve, poor fit]
Potency [2]: inactive
Potency [3]: active: 56.2 µM
